Reference: the supplement of paper PMC4967469
IC50 is the fitted dose that halves viability relative to control wells, and lower means more sensitive; a limit (>, <) means that the fit lies beyond the doses tested. AUC, from the same fit, is the share of area under the viability curve across the 256-fold dose range; the more sensitive the line, the further below 1. For part of these data: An inferred top dose was calculated from the reported fits. For part of these data: An entry number marks a drug with two screens in the source, which often give different values.

Experiments:
Experiment in all cases: Viability of human cancer cell lines after 72 h of drug (GDSC screen)
MP470 = compound: S=C(NCc1ccc2c(c1)OCO2)N1CCN(c2ncnc3c2oc2ccccc23)CC1 [MP470]; settings: top dose 20 µM; top dose inferred
Method: (§1)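 Human cancer cell lines in 384-well plates, medium with 10% serum, drug for 72 h over a 256-fold dose range (nine 2-fold or five 4-fold steps up to the top dose). Adherent lines were fixed and stained with the nucleic acid dye Syto60, suspension lines read with resazurin; signal relative to control wells, capped at 0 and 100%. One two-parameter sigmoid per drug and line, fitted in a mixed model over all curves with the slope shared within a line.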

AUY922 = compound: CCNC(=O)c1noc(-c2cc(C(C)C)c(O)cc2O)c1-c1ccc(CN2CCOCC2)cc1 [AUY922]; settings: top dose 0.256 µM; top dose inferred
Method: as §1

TW-37 = compound: CC(C)c1ccccc1Cc1cc(C(=O)Nc2ccc(S(=O)(=O)c3ccccc3C(C)(C)C)cc2)c(O)c(O)c1O [TW-37]; settings: top dose 5 µM
Method: as §1

Gemcitabine = compound: Nc1ccn([C@@H]2O[C@H](CO)[C@@H](O)C2(F)F)c(=O)n1 [Gemcitabine]; settings: top dose 1.024 µM
Method: as §1

LFM-A13 = compound: C/C(O)=C(\C#N)C(=O)Nc1cc(Br)ccc1Br [LFM-A13]; settings: top dose 16 µM; top dose inferred
Method: as §1

Bicalutamide = compound: CC(O)(CS(=O)(=O)c1ccc(F)cc1)C(=O)Nc1ccc(C#N)c(C(F)(F)F)c1 [Bicalutamide]; settings: top dose inferred
Method: as §1

Nilotinib = compound: Cc1cn(-c2cc(NC(=O)c3ccc(C)c(Nc4nccc(-c5cccnc5)n4)c3)cc(C(F)(F)F)c2)cn1 [Nilotinib]; settings: top dose 2 µM
Method: as §1

KIN001-270 = compound: Cc1ccc(Nc2cc(-c3cccc(N4C(=O)c5ccccc5C4=O)c3)ncn2)cc1NS(C)(=O)=O [KIN001-270]; settings: top dose 20 µM; top dose inferred
Method: as §1

T0901317 = compound: O=S(=O)(c1ccccc1)N(CC(F)(F)F)c1ccc(C(O)(C(F)(F)F)C(F)(F)F)cc1 [T0901317]; settings: top dose 10.24 µM; top dose inferred
Method: as §1

[1] = top dose 1.024 µM, screen: GDSC drug entry 150
[2] = top dose 10 µM, screen: GDSC drug entry 1502

| Cell Line | AUC (MP470) | IC50 (MP470) | AUC (AUY922) | IC50 (AUY922) | AUC (TW-37) | IC50 (TW-37) | AUC (Gemcitabine) | IC50 (Gemcitabine) | AUC (LFM-A13) | IC50 (LFM-A13) | AUC (Bicalutamide; [1]) | IC50 (Bicalutamide; [1]) | AUC (Bicalutamide; [2]) | IC50 (Bicalutamide; [2]) | AUC (Nilotinib) | IC50 (Nilotinib) | AUC (KIN001-270) | IC50 (KIN001-270) | AUC (T0901317) | IC50 (T0901317) |
| --- | --- | --- | --- | --- | --- | --- | --- | --- | --- | --- | --- | --- | --- | --- | --- | --- | --- | --- | --- | --- |
| HT-1376 (bladder, adherent) | 0.487 | 1140 nM | 0.625 | 37.8 nM | 0.762 | 2090 nM | 0.714 | 291 nM | 0.976 | > 16000 nM | 0.982 | > 1020 nM | 0.952 | > 10000 nM | 0.956 | > 2000 nM | 0.985 | > 20000 nM | 0.985 | > 10200 nM |
| Hs633T (fibrosarcoma, adherent) | 0.232 | 252 nM | 0.347 | 6.57 nM | 0.386 | 162 nM | 0.048 | < 4 nM | 0.977 | > 16000 nM | 0.984 | > 1020 nM | 0.974 | > 10000 nM | 0.971 | > 2000 nM | 0.909 | 19000 nM | 0.982 | > 10200 nM |
| Hs683 (glioma, adherent) | 0.858 | 16700 nM | 0.557 | 23 nM | 0.589 | 550 nM | 0.438 | 43.1 nM | 0.967 | > 16000 nM | 0.981 | > 1020 nM | 0.984 | > 10000 nM | 0.98 | > 2000 nM | 0.977 | > 20000 nM | 0.972 | > 10200 nM |
| Hs939-T (melanoma, adherent) | 0.97 | > 20000 nM | 0.687 | 56.3 nM | 0.483 | 279 nM | 0.821 | 669 nM | 0.983 | > 16000 nM | 0.984 | > 1020 nM | 0.985 | > 10000 nM | 0.949 | > 2000 nM | 0.965 | > 20000 nM | 0.986 | > 10200 nM |
| HuCCT1 (biliary tract, adherent) | 0.98 | > 20000 nM | 0.479 | 14 nM | 0.541 | 410 nM | 0.351 | 23.5 nM | 0.949 | > 16000 nM | 0.98 | > 1020 nM | 0.98 | > 10000 nM | 0.971 | > 2000 nM | 0.979 | > 20000 nM | 0.983 | > 10200 nM |
| HuO9 (osteosarcoma, adherent) | 0.611 | 2620 nM | 0.975 | > 256 nM | 0.625 | 722 nM | 0.979 | > 1020 nM | 0.984 | > 16000 nM | 0.981 | > 1020 nM | 0.978 | > 10000 nM | 0.924 | > 2000 nM | 0.982 | > 20000 nM | 0.956 | > 10200 nM |
| HuP-T3 (pancreas, adherent) | 0.927 | > 20000 nM | 0.474 | 13.3 nM | 0.685 | 1160 nM | 0.564 | 99.5 nM | 0.952 | > 16000 nM | 0.977 | > 1020 nM |  |  | 0.982 | > 2000 nM | 0.972 | > 20000 nM | 0.982 | > 10200 nM |
| IGR-1 (melanoma, adherent) | 0.945 | > 20000 nM | 0.507 | 16.6 nM | 0.432 | 209 nM | 0.278 | 16.6 nM | 0.99 | > 16000 nM | 0.99 | > 1020 nM |  |  | 0.99 | > 2000 nM | 0.966 | > 20000 nM | 0.99 | > 10200 nM |
| IHH-4 (thyroid, semi-adherent) | 0.959 | > 20000 nM | 0.367 | 7.43 nM | 0.234 | 64.9 nM | 0.027 | < 4 nM | 0.977 | > 16000 nM | 0.978 | > 1020 nM | 0.992 | > 10000 nM | 0.984 | > 2000 nM | 0.96 | > 20000 nM | 0.961 | > 10200 nM |
| IPC-298 (melanoma, adherent) | 0.944 | > 20000 nM | 0.718 | 65.4 nM | 0.457 | 238 nM | 0.589 | 112 nM | 0.986 | > 16000 nM | 0.987 | > 1020 nM | 0.986 | > 10000 nM | 0.988 | > 2000 nM | 0.987 | > 20000 nM | 0.973 | > 10200 nM |
| JEG-3 (urogenital system, adherent) | 0.51 | 1330 nM | 0.689 | 50.8 nM | 0.581 | 509 nM | 0.482 | 57.6 nM | 0.991 | > 16000 nM | 0.991 | > 1020 nM | 0.975 | > 10000 nM | 0.99 | > 2000 nM | 0.991 | > 20000 nM | 0.972 | > 10200 nM |
| JHH-1 (liver, adherent) | 0.77 | 8280 nM | 0.669 | 49.5 nM | 0.381 | 143 nM | 0.494 | 61.6 nM | 0.976 | > 16000 nM | 0.985 | > 1020 nM | 0.982 | > 10000 nM | 0.981 | > 2000 nM | 0.985 | > 20000 nM | 0.967 | > 10200 nM |
| JHH-2 (liver, adherent) | 0.969 | > 20000 nM | 0.87 | > 256 nM | 0.719 | 1370 nM | 0.957 | > 1020 nM | 0.982 | > 16000 nM | 0.982 | > 1020 nM | 0.981 | > 10000 nM | 0.986 | > 2000 nM | 0.983 | > 20000 nM | 0.984 | > 10200 nM |
| JHH-4 (liver, adherent) | 0.908 | > 20000 nM | 0.987 | > 256 nM | 0.641 | 763 nM | 0.212 | 9.18 nM | 0.983 | > 16000 nM | 0.981 | > 1020 nM | 0.975 | > 10000 nM | 0.984 | > 2000 nM | 0.865 | 17600 nM | 0.985 | > 10200 nM |
